# Assay results taken from paper PMC10726135.
# The list shows a part of the results. At the low end of the ranking, values are background and their order means little. The protein was read in a cell extract, so binding may be indirect.
# Molecular target: T1, HNF4alpha8 (COS-7 nuclear extract) (UniProt P41235-5)
# T1 sequence: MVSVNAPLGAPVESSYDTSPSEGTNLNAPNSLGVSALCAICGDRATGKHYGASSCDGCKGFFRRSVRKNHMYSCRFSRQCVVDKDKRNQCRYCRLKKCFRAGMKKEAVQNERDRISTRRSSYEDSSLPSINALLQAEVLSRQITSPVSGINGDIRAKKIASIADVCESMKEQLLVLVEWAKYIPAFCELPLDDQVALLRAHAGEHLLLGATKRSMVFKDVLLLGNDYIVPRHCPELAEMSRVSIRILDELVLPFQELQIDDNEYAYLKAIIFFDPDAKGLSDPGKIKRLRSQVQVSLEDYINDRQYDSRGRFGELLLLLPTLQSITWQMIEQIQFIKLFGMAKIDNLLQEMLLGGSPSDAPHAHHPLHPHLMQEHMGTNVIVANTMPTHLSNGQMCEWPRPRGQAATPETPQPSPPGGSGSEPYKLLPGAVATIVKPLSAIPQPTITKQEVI
# Experiment: protein-binding microarray
# Conditions: COS-7 nuclear extract on double-stranded Agilent 4x180k PBM; binding buffer, salt, pH and temperature not given; high values mean tight binding; double strand, one strand shown; sequences stand for … in …GCCTAGGGAGATTAGAGTATCGGTCGA
row,Sequence,binding signal (log2 normalized intensity)
1,GTTAGCATAGCCTATCTGGTGCAGTCCAAG,0.263
2,CTACATCAAGAGGATTACATAACCACCACT,-1.29
3,TGAAACTCCACTACATTAGCAGCGCCACCA,-1.35
4,CTTGACCTTTGATCCAGGCTCAGTGGGCGT,5.72
5,ACTCTGAGGCTCCATCATGCCTGGCAGCCT,-1.26
6,AGGAATGCTGAGGAGGGCCTGGGGGACAGC,-1.29
7,TGAATCAATAAGCCAGTGAACCTTTGTCCC,5.34
8,TTCATCAGATTAGAAGGCAGAGAAAGATAG,-1.26
9,TCCCTTCCCCCCTCCTCATTGAGAGTTTTA,3.95
10,CTGCTTGATAGCCATCTGGTGGACTTTGCT,6.09
11,CAGTGACAAATGTCAGACAAACAGACTTCA,-1.35
12,GGCCAGGATTAACCACAGAAATGCCGCTAA,-1.36
13,GAACGAATACTCAAGGGGAAGAAATCTAAG,-1.36
14,TGAGTGACCTTTCACCCGCGCCCAGCGGTT,4.46
15,CCGGGAGCGCCGAGCACGTCGAGCAGGCCC,-1.17
16,GACACACATGAGCTAGTGCTAAAGGTCATA,6.29
17,TAACCACATTCTTTCTGCATCGCAGTCGCC,-1.18
18,AGGCCTAACTGGCTTTGTCTGCTCAGGAAT,-1.25
19,AGGCCATCTGCTGGAGAATCCTCTCTTGCT,-1.25
20,TGGGTTGGAACCCCGTTTCTCCTACCTCAT,-0.639
21,ATCTGACAGAGATAAGGAAGTTCCAACATC,-1.3
22,AAAGAGCAACTACTCTCTCTTCTGGAGGAG,-1.25
23,ATGAGCAAGGTGGGTTCAGAGACCCTAGAG,-1.37
24,CTAACCTTCGTCCTTGCCCCTGGCTGGGCC,1.21

row,Sequence,binding signal (log2 normalized intensity)
1,CTTATCTAGATAAGTTGGTTTACTTATGTC,0.666
2,CAGCTCTGGGCCCCTCGGCCGCTCCCTCCC,1.82
3,AAGCTTCACAAAGGGCTGAGGTTAAAGTCC,7.44
4,GCAAAAATGCAGGCAATGAATAGAACAAAT,-1.37
5,TCAAAAACCCATGGGAAGCTTCACAAAGGG,-1.35
6,TTCAACTGGAGGATAAAGTTCAAGTAGATA,2.68
7,GTGATAACGACATTCTTTGGATATGAAGGT,1.11
8,TGCTTAGCGGCCTTCCCCTTTTTCTGTAAA,1.03
9,AATTCTATGAGTAGGTACAAATTCCAAGGA,2.31
10,ATGCGATACTTGACCTGCAATGAAAGTCCA,3.34
11,CCAAATTCCTCCCACTCTGACATCCCCCTT,4.41
12,ATGAATGTCACACACAGACTTGGGTTCAAA,2.26
13,GGGAAACAGCGAGAGTCCTCTTGGTTTATG,-0.209
14,AGTCCAGGCAGGACATCAAAGAACAAGTAT,-0.928
15,ACTGCAGGGGGGTGGGCACCCCTGCCCCCA,3.59
16,GTTAGCAACCGGAAGTGGCTAGAGGTCGCG,1.17
17,AGTCCAGGGTAGGAGCCTCTGATTTGCTGA,-1.44
18,ACTCCTTTGCTTATCTGATAAGTCCATACC,2.06
19,CAAAGGTCAACAAACGCCCCTTGGATGAAT,4.18
20,ATAAGGCCCGGCTGATGGGACCAAAGGTGA,3.51
21,GCATAGGGAGAATGATAAGATATATGACTC,-1.26
22,TGACAAGCAAACACAAACTATGACCTTTGA,9.22
23,TGTACCTGGGGCAAACATCAATTTAGACCG,-0.337
24,GTCCCCTGTGCTTTGGCCAAATAATAGCAT,0.763

row,Sequence,binding signal (log2 normalized intensity)
1,GAGCGCTTTGAGGCCTATGGCGAAAAAGGA,-1.17
2,GGCTCTCCCCACTTACTTCCTGATAACCTG,0.569
3,GGAAATGCCTAGGATACCTAGTAGGCACAA,-1.33
4,TTGACCTTTGGCCAAGGGCAGTGTTTGCCC,6.36
5,TGACCCTATCCACATTCAGCCCACTTCCTA,0.952
6,GATGCAGGTCGCCGGGAAAACCCGGAGCGG,-1.32
7,GTTCCCTGGGTCGCCAAGCCGGAGGCTTTG,-1.03
8,CTGACTGGCCTGGGAACCCCAAGTTATCTT,0.236
9,TCACCTGTAGGGATGTGGGACTTAATCCTT,-0.00026
10,ACACCTTTTCTAGCTGAGTTGACCTGTGTT,4.51
11,TTGCACTGTGCTTTGTTTACTTAACCTTTG,4.5
12,ATTCAAGAAAGGGGCAAAGTTTATGTGTGA,3.01
13,AAGAAATAAAAACAGCTGGGTTCCAAAAGG,0.513
14,TTGAAAGGGACTTAGAATCGAATTGTGAAA,-1.31
15,GTCAGGGAAGGTGCCAAGCATTCTAATCAT,-0.871
16,CTCAGTGTTCCACAGCAAGTAAATTCCGGG,0.393
17,CTCTGATCTGACCCCTTCTTGACCTGCGTA,4.12
18,TTATCAGGACTTTGTGATTACATTGAGTCC,1.97
19,GTGTTCCCAGGGGCTCCCACCAGGGGGAGG,-1.34
20,ATTTAGAGACAATCACTTGTATCGCCTGAA,-1.21
21,TGAGAGAGAAGGCAAGATTTTGTCCTGAGT,0.421
22,TGTCCTTGGCCTCACAGACAGATAGCAAAA,-1.35
23,TCTTTTTGCCACTAGGGGTCACTGTCACAT,3.39
24,ACCTGTCTCTCTGCATTCCTCCTGGCCTCT,1.44
